Assay [1] deals with flag-tagged death domain-truncated TRAIL-R mutant (1–273; TRAIL-R^△DD-FLAG) (mouse) (UniProt Q9QZM4). Description: co-IP; EL4 T cells transfected with TRAIL-R^WT-FLAG or TRAIL-R^△DD-FLAG, stimulated with anti-CD3 (3 µg/mL) and anti-CD28 (2 µg/mL) Abs in the presence or absence of TRAIL (10 µg/mL) for 30 min; immunoprecipitation and immunoblot. (Immunoblotting shows a protein as a band on a membrane.)

By UniProt entry, the sequences of proteins in these tests, tags left out. Where a name states a change or a piece, a line headed by the entry shows the natural chain unless it says otherwise. Chains listed by the source or under a name are the forms on record and can include a tag or linker. Residues count along the entry.
UniProt Q9QZM4: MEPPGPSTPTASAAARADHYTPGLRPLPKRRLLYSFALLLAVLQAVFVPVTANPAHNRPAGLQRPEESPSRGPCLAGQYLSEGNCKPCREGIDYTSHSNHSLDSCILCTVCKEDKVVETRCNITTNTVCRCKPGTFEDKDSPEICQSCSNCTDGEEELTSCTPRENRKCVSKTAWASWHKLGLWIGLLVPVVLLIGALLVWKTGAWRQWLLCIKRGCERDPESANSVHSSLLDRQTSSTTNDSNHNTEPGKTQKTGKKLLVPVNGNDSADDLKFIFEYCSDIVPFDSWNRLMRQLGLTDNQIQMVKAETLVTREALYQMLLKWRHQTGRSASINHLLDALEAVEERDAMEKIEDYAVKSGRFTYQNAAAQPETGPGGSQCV
TRAIL receptor (TRAIL-R), endogenous in murine T cells (mouse (endogenous in murine splenic CD4+ T cells)): residues 53-381 of Q9QZM4
flag-tagged death domain-truncated TRAIL-R mutant (1–273; TRAIL-R^△DD-FLAG): residues 53-273 of Q9QZM4
UniProt P06240: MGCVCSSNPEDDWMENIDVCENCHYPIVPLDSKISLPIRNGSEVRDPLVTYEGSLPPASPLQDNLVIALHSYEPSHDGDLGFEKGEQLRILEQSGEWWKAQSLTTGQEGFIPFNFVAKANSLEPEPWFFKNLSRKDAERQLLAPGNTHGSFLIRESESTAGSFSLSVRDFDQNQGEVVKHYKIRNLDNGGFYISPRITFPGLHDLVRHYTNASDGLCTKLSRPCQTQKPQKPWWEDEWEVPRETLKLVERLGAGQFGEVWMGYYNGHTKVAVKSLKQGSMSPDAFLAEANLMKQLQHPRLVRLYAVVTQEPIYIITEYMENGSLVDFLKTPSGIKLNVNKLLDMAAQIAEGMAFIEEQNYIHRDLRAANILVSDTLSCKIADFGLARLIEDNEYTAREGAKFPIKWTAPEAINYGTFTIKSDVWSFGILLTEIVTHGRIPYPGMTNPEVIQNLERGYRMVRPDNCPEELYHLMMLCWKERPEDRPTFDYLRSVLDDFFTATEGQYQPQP
UniProt P29351: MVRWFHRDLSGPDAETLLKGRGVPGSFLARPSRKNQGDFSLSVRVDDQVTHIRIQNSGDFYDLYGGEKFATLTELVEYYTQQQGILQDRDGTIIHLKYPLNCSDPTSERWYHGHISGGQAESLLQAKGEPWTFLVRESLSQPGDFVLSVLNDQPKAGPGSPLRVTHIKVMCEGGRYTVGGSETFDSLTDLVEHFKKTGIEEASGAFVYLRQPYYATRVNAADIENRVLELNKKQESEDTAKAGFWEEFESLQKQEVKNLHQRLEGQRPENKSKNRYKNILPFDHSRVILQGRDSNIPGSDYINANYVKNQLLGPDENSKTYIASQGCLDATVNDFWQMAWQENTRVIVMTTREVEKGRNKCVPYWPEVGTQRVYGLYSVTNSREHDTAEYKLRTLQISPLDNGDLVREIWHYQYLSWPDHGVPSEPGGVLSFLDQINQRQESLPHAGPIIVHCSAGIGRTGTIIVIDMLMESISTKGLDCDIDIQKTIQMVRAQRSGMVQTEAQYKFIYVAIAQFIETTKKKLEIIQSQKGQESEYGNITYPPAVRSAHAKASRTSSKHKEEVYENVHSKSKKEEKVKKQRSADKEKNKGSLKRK
UniProt P41241: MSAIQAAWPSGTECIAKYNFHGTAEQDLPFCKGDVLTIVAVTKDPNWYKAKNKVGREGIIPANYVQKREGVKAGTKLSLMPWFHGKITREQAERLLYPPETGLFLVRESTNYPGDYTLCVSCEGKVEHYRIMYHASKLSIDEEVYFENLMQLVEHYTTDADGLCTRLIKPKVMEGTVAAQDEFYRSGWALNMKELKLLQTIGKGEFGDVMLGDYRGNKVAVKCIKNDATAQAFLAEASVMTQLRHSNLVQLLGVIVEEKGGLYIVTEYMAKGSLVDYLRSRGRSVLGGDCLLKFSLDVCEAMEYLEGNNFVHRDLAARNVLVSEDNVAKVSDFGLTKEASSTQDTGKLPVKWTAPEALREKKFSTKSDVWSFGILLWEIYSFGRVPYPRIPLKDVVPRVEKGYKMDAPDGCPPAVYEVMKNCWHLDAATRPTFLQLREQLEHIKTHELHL

The target in assay [2] is flag-tagged full-length TRAIL-R (1–381; TRAIL-R^WT-FLAG) (mouse) (UniProt Q9QZM4). The assay is described as above.
Assay [3] concerns the target Lck, endogenous in murine T cells (mouse (endogenous in murine splenic CD4+ T cells)) (UniProt P06240). The assay is described as follows: co-IP; endogenous proteins of murine splenic CD4+ T cell extracts; IP with anti-TRAIL-R Ab, reciprocal IP, or anti-Lck Ab, protein G-agarose, lysis buffer 50 mM Tris pH 8.0, 150 mM NaCl, 1% Triton X-100, 0.5% deoxycholate, 0.1% SDS, 4 °C, 3 h, immunoblot; cells resting, treated with TRAIL (10 µg/mL) and/or stimulated with anti-CD3 (3 µg/mL) and anti-CD28 (2 µg/mL) Abs.

The target of assay [4] is TRAIL receptor (TRAIL-R), endogenous in murine T cells (mouse (endogenous in murine splenic CD4+ T cells)) (UniProt Q9QZM4). The assay is described as above.

No constants are given. Whether binding was seen depends on the method and setting. Binding seen in cells or lysates may run through a third protein. Some results given as binding are weak or reduced against the parent protein; the word gives no strength.

Regarding “tyrosine phosphatase SHP-1, endogenous in murine T cells (from UniProt P29351 1-595) (enzyme)”, the binding result in assay [1] is given as “no binding”; in assay [2] it was “binds”; in assay [3], “binds”; in assay [4], “binds”.

For the substance “Lck, endogenous in murine T cells (from UniProt P06240 1-509) (enzyme)”, in assay [4], the binding result was “binds”.

Regarding “Cbl (E3 ubiquitin ligase), endogenous in murine T cells (from UniProt P22682 1-913) (enzyme)”, the binding entry in assay [4] is recorded as “no binding”.

On to “Csk (Src tyrosine kinase), endogenous in murine T cells (from UniProt P41241 1-450) (enzyme)”, for which, in assay [4], the binding entry is recorded as “no binding”.

For the origin of these results see article PMC10967194.
